Test results from patent US20240247080A1, “GLP1/GIP/NPY2 RECEPTOR TRIPLE AGONISTS” (Boehringer Ingelheim International GmbH, priority 2022, published 2024).
Where two headings read alike, the source gives them in different places. For at least one compound, name, drawing or mass did not settle the structure. Starred links: 1 amine or outer side, 2 acyl side, 3 side chain; linkers in the order of their positions; H or OH if unused. Non-standard residues stand in square brackets, D forms with d. Groups on a side chain read outwards from the residue. No end group written: not given here. *: point of attachment. C20 diacid = O=C(O)CCCCCCCCCCCCCCCCCCC(=O)*; C18 diacid = O=C(O)CCCCCCCCCCCCCCCCC(=O)*; γGlu = O=C(O)[C@H](CCC(=O)[*:2])N[*:1]; AEEA = NCCOCCOCC(=O)O; Aib = CC(C)(N)C(=O)O

Experiments:
[1] = target: T1, hGLP1R (Homo sapiens, UniProt P43220); test: hGLP1R CreLuc reporter gene assay in 0.5% and 100% plasma; format: cell-based
T1 construct: expressed in transfected cells; host or cells: HEK-293 cells carrying a CRE-luciferase reporter gene
T1 sequence (P43220 24-463): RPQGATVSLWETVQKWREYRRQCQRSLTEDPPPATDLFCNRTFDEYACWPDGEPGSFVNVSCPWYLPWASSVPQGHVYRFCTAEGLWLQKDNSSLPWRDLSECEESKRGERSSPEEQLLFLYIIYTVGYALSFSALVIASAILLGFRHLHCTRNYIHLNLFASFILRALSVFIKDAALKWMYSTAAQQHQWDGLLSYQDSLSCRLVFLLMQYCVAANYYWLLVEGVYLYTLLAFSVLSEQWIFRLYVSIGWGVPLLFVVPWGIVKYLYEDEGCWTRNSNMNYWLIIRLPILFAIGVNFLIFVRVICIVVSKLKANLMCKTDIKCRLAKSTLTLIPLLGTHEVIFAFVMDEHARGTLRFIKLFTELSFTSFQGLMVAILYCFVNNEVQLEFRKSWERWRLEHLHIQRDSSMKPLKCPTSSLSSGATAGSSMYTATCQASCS
In short: (§1)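 HEK-293 cells co-expressing GLP-1 or NPY2 receptor and CHO cells expressing GIP receptor, each carrying a CRE-driven luciferase reporter, were stimulated with peptides for 4 hours at 37 °C. Luminescence was read after Bright-Glo addition. EC50 came from 8-point, four-decade curves fitted by variable-slope non-linear regression.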

[2] = Effect on acute food intake in normal NMRI mice; format: in vivo; conditions: 30 nmol/kg subcutaneously once, normalized to vehicle group, male NMRI mice
Method: Example 4: Effect on Acute Food Intake in Normal NMRI Mice
Male NMRI mice were obtained from Janvier (Janvier Labs, France) or from Charles River (Charles River Research Models & Services Germany GmbH) at the age of 3 weeks. The animals get a microchip (Datamars, Slim Microchip T-SL) for individual identification after delivery. They were housed with 4 mice per cage under a 12/12 dark-light cycle, light off at 3 p.m. Room temperature was controlled to 21° C. +/−1° C. and humidity 60%+/−20%. Mice had ad libitum access to regular rodent chow (KLIBA Nafag 3040 or Altromin 1324, Brogaarden, Denmark) and tap water.
Latest transfer into the HM2-System of MBRose, Denmark (real-time monitoring system of food- and water intake) of the animals 5 days before study start, to allow acclimatization to experimental conditions. As the animals were uniquely identified with the microchips, each individual animal was identified by its own microchip upon entry and exit from the food channel via antennae. Randomization of the mice for each study group (n=8; age earliest 6 weeks old) was based on food intake (middle of last three days 24 h-Intervall) and bodyweight directly before start of the study. A vehicle treated (50 mM phosphate buffer pH7.4 with 3.5% Mannitol) group was included in each experiment. To have the same nutrition standard for each animal the food access was locked eight hours before dark phase. One hour before night, the animals were once treated subcutaneously with the test peptide. Food intake was reported hourly for a period of 24 h.

[3] = target: T2, hGIPR (Homo sapiens, UniProt P48546); test: hGIPR CreLuc reporter gene assay in 0.5% and 100% plasma; format: cell-based
T2 construct: expressed in transfected cells; host or cells: CHO cells carrying a CRE-luciferase reporter gene
T2 sequence (P48546 22-466): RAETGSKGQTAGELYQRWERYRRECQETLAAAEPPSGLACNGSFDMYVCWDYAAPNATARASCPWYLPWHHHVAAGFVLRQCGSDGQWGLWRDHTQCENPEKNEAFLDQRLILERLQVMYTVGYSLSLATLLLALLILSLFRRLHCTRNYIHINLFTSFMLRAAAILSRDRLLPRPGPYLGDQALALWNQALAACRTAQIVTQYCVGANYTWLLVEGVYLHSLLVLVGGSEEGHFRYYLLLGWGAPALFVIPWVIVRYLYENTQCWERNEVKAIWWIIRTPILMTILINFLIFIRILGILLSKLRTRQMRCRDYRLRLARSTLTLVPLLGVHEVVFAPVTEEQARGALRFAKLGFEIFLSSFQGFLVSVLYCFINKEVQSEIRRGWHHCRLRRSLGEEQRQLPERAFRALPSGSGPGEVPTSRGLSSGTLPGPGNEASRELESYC
In short: as §1

[4] = target: T3, hNPY2R (Homo sapiens, UniProt P49146); test: hNPY2R CreLuc reporter gene assay in 0.5% and 100% plasma; format: cell-based
T3 construct: expressed in transfected cells; host or cells: HEK-293 cells carrying a CRE-luciferase reporter gene
T3 sequence (P49146 1-381): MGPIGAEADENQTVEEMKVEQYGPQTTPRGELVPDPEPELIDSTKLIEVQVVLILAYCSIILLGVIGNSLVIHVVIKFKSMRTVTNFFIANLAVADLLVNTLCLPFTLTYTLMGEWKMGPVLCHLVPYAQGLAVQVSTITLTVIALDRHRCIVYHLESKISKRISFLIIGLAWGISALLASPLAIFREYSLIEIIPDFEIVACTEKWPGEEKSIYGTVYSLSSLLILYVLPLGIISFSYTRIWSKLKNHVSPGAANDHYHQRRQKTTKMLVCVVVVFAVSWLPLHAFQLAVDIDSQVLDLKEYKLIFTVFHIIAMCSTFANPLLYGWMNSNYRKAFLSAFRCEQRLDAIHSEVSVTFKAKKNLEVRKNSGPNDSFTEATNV
In short: as §1

[5] = 0.5% human plasma, read-out: hGLP1R 0.5% hP
[6] = 0.5% human plasma, read-out: hGIPR 0.5% hP
[7] = 0.5% human plasma, read-out: hNPY2R 0.5% hP
[8] = 100% human plasma, read-out: hNPY2R 100% hP
[9] = 100% human plasma, read-out: hGIPR 100% hP

Row | Molecule | EC50 [1, 5] [nM] | Acute Food Intake 24 h 30 nmol/kg [% CTL] [2] [% CTL] | EC50 [3, 6] [nM] | EC50 [4, 7] [nM] | EC50 [4, 8] [nM] | EC50 ([1]; 100% human plasma, read-out: hGLP1R 100% hP) [nM] | EC50 [3, 9] [nM]
1 | Y[Aib]EGTFTSDYSI[Aib]LEKQAQ[Aib]EFVQWLIK([γGlu-γGlu-γGlu-γGlu-Glu-γGlu-C20 diacid])GGPSSGASLRHYYNWLTRQRY-NH2 [Compound 28, Y-Aib-E-G-T-F-T-S-D-Y-S-I-Aib-L-E-K-Q-A-Q-Aib-E-F-V-Q-W-L-I-K(1,3)-GGPSSGASLRHYYNWLTRQRY-NH2.C20DA-gGlu-Glu-gGlu-gGlu-gGlu-gGlu(1,2)] | 0.22 | 67 | 0.38 | 10.3 | 46 |  | 
2 | CC[C@H](C)[C@H](NC(=O)[C@H](CC(C)C)NC(=O)[C@H](Cc1c[nH]c2ccccc12)NC(=O)[C@H](CCC(=O)O)NC(=O)[C@@H](NC(=O)[C@H](Cc1ccccc1)NC(=O)[C@H](C)NC(=O)C(C)(C)NC(=O)[C@H](CCC(N)=O)NC(=O)[C@H](C)NC(=O)[C@H](CCC(N)=O)NC(=O)[C@H](CCCCN)NC(=O)[C@H](CCC(=O)O)NC(=O)[C@H](CC(C)C)NC(=O)C(C)(C)NC(=O)[C@@H](NC(=O)[C@H](CO)NC(=O)[C@H](Cc1ccc(O)cc1)NC(=O)[C@H](CC(=O)O)NC(=O)[C@H](CO)NC(=O)[C@@H](NC(=O)[C@H](Cc1ccccc1)NC(=O)[C@@H](NC(=O)CNC(=O)[C@H](CCC(=O)O)NC(=O)C(C)(C)NC(=O)[C@@H](N)Cc1ccc(O)cc1)[C@@H](C)O)[C@@H](C)O)[C@@H](C)CC)C(C)C)C(=O)N[C@@H](CCCCNC(=O)[C@@H](N)CCCCNC(=O)CC[C@H](NC(=O)CC[C@H](NC(=O)CC[C@H](NC(=O)CC[C@H](NC(=O)CC[C@H](NC(=O)CC[C@H](NC(=O)CCCCCCCCCCCCCCCCCCC(=O)O)C(=O)O)C(=O)O)C(=O)O)C(=O)O)C(=O)O)C(=O)O)C(=O)NCC(=O)NCC(=O)N1CCC[C@H]1C(=O)N[C@@H](CO)C(=O)N[C@@H](CO)C(=O)NCC(=O)N[C@H](C(=O)N[C@@H](CO)C(=O)N[C@H](C(=O)N[C@@H](CCCNC(=N)N)C(=O)N[C@@H](Cc1c[nH]cn1)C(=O)N[C@@H](Cc1ccc(O)cc1)C(=O)N[C@@H](Cc1ccc(O)cc1)C(=O)N[C@@H](CC(N)=O)C(=O)N[C@@H](Cc1c[nH]c2ccccc12)C(=O)N[C@@H](CC(C)C)C(=O)N[C@H](C(=O)N[C@@H](CCCNC(=N)N)C(=O)N[C@@H](CCC(N)=O)C(=O)N[C@@H](CCCNC(=N)N)C(=O)N[C@@H](Cc1ccc(O)cc1)C(N)=O)[C@@H](C)O)[C@@H](C)CC)C(C)C [Compound 27, Y-Aib-E-G-T-F-T-S-D-Y-S-I-Aib-L-E-K-Q-A-Q-Aib-A-F-V-E-W-L-I-K(1,3)-GGPSSGVSIRHYYNWLTRQRY-NH2.C20DA-gGlu-gGlu-gGlu-gGlu-gGlu-gGlu-eLys(1,2)] |  | 41 |  |  |  |  | 
3 | Y[Aib]EGTFTSDYSI[Aib]LEKQAQ[Aib]EFVEWLIK([AEEA-AEEA-Glu-γGlu-γGlu-γGlu-γGlu-C18 diacid])GGPSSGASLRHYYNWLTRQRY-NH2 [Compound 201, Y-Aib-E-G-T-F-T-S-D-Y-S-I-Aib-L-E-K-Q-A-Q-Aib-E-F-V-E-W-L-I-K(1,3)-GGPSSGASLRHYYNWLTRQRY-NH2.C18DA-gGlu-gGlu-gGlu-gGlu-Glu-OEG-OEG(1,2)] | 0.28 |  | 0.49 |  | 31 | 10.4 | 1.03
4 | CC[C@H](C)[C@H](NC(=O)[C@H](CC(C)C)NC(=O)[C@H](Cc1c[nH]c2ccccc12)NC(=O)[C@H](CCC(=O)O)NC(=O)[C@@H](NC(=O)[C@H](Cc1ccccc1)NC(=O)[C@H](C)NC(=O)C(C)(C)NC(=O)[C@H](CCC(N)=O)NC(=O)[C@H](C)NC(=O)[C@H](CCC(N)=O)NC(=O)[C@H](CCCCN)NC(=O)[C@H](CCC(=O)O)NC(=O)[C@H](CC(C)C)NC(=O)C(C)(C)NC(=O)[C@@H](NC(=O)[C@H](CO)NC(=O)[C@H](Cc1ccc(O)cc1)NC(=O)[C@H](CC(=O)O)NC(=O)[C@H](CO)NC(=O)[C@@H](NC(=O)[C@H](Cc1ccccc1)NC(=O)[C@@H](NC(=O)CNC(=O)[C@H](CCC(=O)O)NC(=O)C(C)(C)NC(=O)[C@@H](N)Cc1ccc(O)cc1)[C@@H](C)O)[C@@H](C)O)[C@@H](C)CC)C(C)C)C(=O)N[C@@H](CCCCNC(=O)[C@@H](N)CCCCNC(=O)CC[C@H](NC(=O)CC[C@H](NC(=O)CC[C@H](NC(=O)[C@H](CCC(=O)O)NC(=O)CC[C@H](NC(=O)CC[C@H](NC(=O)CCCCCCCCCCCCCCCCCCC(=O)O)C(=O)O)C(=O)O)C(=O)O)C(=O)O)C(=O)O)C(=O)NCC(=O)NCC(=O)N1CCC[C@H]1C(=O)N[C@@H](CO)C(=O)N[C@@H](CO)C(=O)NCC(=O)N[C@@H](C)C(=O)N[C@@H](CO)C(=O)NC(C)(C)C(=O)N[C@@H](CCCNC(=N)N)C(=O)N[C@@H](Cc1c[nH]cn1)C(=O)N[C@@H](Cc1ccc(O)cc1)C(=O)NC(C)(C)C(=O)N[C@@H](CC(N)=O)C(=O)N[C@@H](Cc1c[nH]c2ccccc12)C(=O)N[C@@H](CC(C)C)C(=O)N[C@H](C(=O)N[C@@H](CCCNC(=N)N)C(=O)N[C@@H](CCC(N)=O)C(=O)N[C@@H](CCCNC(=N)N)C(=O)N[C@@H](Cc1ccc(O)cc1)C(N)=O)[C@@H](C)O [Compound 76, Y-Aib-E-G-T-F-T-S-D-Y-S-I-Aib-L-E-K-Q-A-Q-Aib-A-F-V-E-W-L-I-K(1,3)-G-G-P-S-S-G-A-S-Aib-R-H-Y-Aib-N-W-L-T-R-Q-R-Y-NH2.C20DA-gGlu-gGlu-Glu-gGlu-gGlu-gGlu-eLys(1,2)] | 0.1 |  | 0.2 | 31.5 | 158 |  | 1.39
5 | CC[C@H](C)[C@H](NC(=O)[C@H](CC(C)C)NC(=O)[C@H](Cc1c[nH]c2ccccc12)NC(=O)[C@H](CCC(=O)O)NC(=O)[C@@H](NC(=O)[C@H](Cc1ccccc1)NC(=O)[C@H](C)NC(=O)C(C)(C)NC(=O)[C@H](CCC(N)=O)NC(=O)[C@H](C)NC(=O)[C@H](CCC(N)=O)NC(=O)[C@H](CCCCN)NC(=O)[C@H](CCC(=O)O)NC(=O)[C@H](CC(C)C)NC(=O)C(C)(C)NC(=O)[C@@H](NC(=O)[C@H](CO)NC(=O)[C@H](Cc1ccc(O)cc1)NC(=O)[C@H](CC(=O)O)NC(=O)[C@H](CO)NC(=O)[C@@H](NC(=O)[C@H](Cc1ccccc1)NC(=O)[C@@H](NC(=O)CNC(=O)[C@H](CCC(=O)O)NC(=O)C(C)(C)NC(=O)[C@@H](N)Cc1ccc(O)cc1)[C@@H](C)O)[C@@H](C)O)[C@@H](C)CC)C(C)C)C(=O)N[C@@H](CCCCNC(=O)[C@@H](N)CCCCNC(=O)CC[C@H](NC(=O)CC[C@H](NC(=O)CC[C@H](NC(=O)CC[C@H](NC(=O)CC[C@H](NC(=O)CC[C@H](NC(=O)CCCCCCCCCCCCCCCCCCC(=O)O)C(=O)O)C(=O)O)C(=O)O)C(=O)O)C(=O)O)C(=O)O)C(=O)NCC(=O)NCC(=O)N1CCC[C@H]1C(=O)N[C@@H](CO)C(=O)N[C@@H](CO)C(=O)NCC(=O)N[C@@H](C)C(=O)N[C@@H](CO)C(=O)N[C@@H](CC(C)C)C(=O)N[C@@H](CCCNC(=N)N)C(=O)N[C@@H](Cc1c[nH]cn1)C(=O)N[C@@H](Cc1ccc(O)cc1)C(=O)N[C@@H](Cc1ccc(O)cc1)C(=O)N[C@@H](CC(N)=O)C(=O)N[C@@H](Cc1c[nH]c2ccccc12)C(=O)N[C@@H](CC(C)C)C(=O)N[C@H](C(=O)N[C@@H](CCCNC(=N)N)C(=O)N[C@@H](CCC(N)=O)C(=O)N(C)[C@@H](CCCNC(=N)N)C(=O)N[C@@H](Cc1ccc(O)cc1)C(N)=O)[C@@H](C)O [Compound 83, Y-Aib-E-G-T-F-T-S-D-Y-S-I-Aib-L-E-K-Q-A-Q-Aib-A-F-V-E-W-L-I-K(1,3)-G-G-P-S-S-G-A-S-L-R-H-Y-Y-N-W-L-T-R-Q-NMeR-Y-NH2.C20DA-gGlu-gGlu-gGlu-gGlu-gGlu-gGlu-eLys(1,2)] |  | 64 |  |  |  |  | 
